# In PubChem BioAssay AID686971 (National Center for Advancing Translational Sciences (NCATS), 2013):
# Out of some 360,000 compounds screened, about 7,500 (2.1%) were called active. Inconclusive means that the source gave no clear call. Such entries were picked first, then a sample of the others. Calls follow the shape of the dose curve; as a rule, active = well fitted cell-killing curve with a large enough effect; inconclusive = small, poorly fitted or top-dose-only effect, or effect the other way, or another doubt; inactive = no such curve, though single readings can be large or run the other way. No potency is given beside an inconclusive call; the fits are too rough.
# Experiment: qHTS for induction of synthetic lethality in tumor cells producing 2HG: qHTS for the HT-1080-IDH1KD cell line
# Details: HT-1080 IDH1 knockdown viability, ATP luminescence, 48 h; activity, negative = toxicity: at 46.1 µM (top of the series) unless noted
# Source text: Unbiased genomic sequencing for 22 glioma genomes found recurrent mutation of IDH1 on chromosome 2q33, a gene encoding the cytosolic isoform of IIDH1 associated with the tri-carboxylic acid cycle (TCA) that catalyzes the oxidative decarboxylation of isocitrate, yielding alpha-ketoglutarate and CO2 via NADP+ to NADPH conversion. Subsequent studies confirmed the recurrent IDH mutations in up to 70% of secondary gliomas and in 10% of AML cases. In addition, the somatic mutation of cancer-associated IDH1 is a point mutation resulting in various amino-acid substituents at Arginine132 (IDH1 R132), a key residue found in the enzyme's active site that when mutated, results in the loss-of-function in metabolizing isocitrate but confers a gain-of-function to produce the oncometabolite 2-hydroxyglutarate (2HG). This in effect defines IDH1 as an oncogene and provides an extraordinary opportunity to discover chemical probes against mutant IDH1 that may translate into much needed new therapies for glioma and AML patients.
# This assay aims to perform a synthetic-lethal screen for chemical probes specific for 2HG-producing tumor cells using matched paired cell lines (1) HT-1080-NT fibrosarcoma cell line that overproduces 2HG and (2) HT-1080-IDH1KD cell line which has IDH1 expression knocked-down. Desirable compounds are toxic to the NT fibrosarcoma cell line but not to the IDH1KD cell line. The data in this AID corresponds to the results of the qHTS against the HT-1080 IDH1KD cell line.
# [1] Dang L, Jin S, Su SM. IDH mutations in glioma and acute myeloid leukemia. Trends of Mol Med. 2010; 16(9): 387-97.
# [2] Dang L et al. Cancer-associated IDH1 mutations produce 2-hydroxyglutarate. Nature. 2010; 465(7300):966.
# Molecular Libraries Probe Production Centers Network [MLPCN]
# NIH Chemical Genomics Center [NCGC]
# Assay Submitter (PI): Lenny Dang Ph.D., Agios Pharmaceuticals
# Suspensions of trypsinized HT-1080-IDH1KD cells were dispensed into white, tissue culture-treated, solid 1536-well plates at 5uL/well (750 cells/well final concentration) in RPMI medium supplemented with 5% FBS. Plates were incubated at 37 degrees C for 2 hours, after which 23 nL of compounds or DMSO were delivered to each well using a pin tool. Plates were then incubated at 37 degrees C for an additional 48 hours. CellTiter-Glo viability reagent (Promega) was dispensed into wells (2.5uL/well) and incubated at room temperature for 10 minutes. The plates were measured on a PerkinElmer ViewLux plate reader for luminescent signal (clear filter, 1 sec exp.). DMSO-treated control wells and media-only (no cells) control wells were used to normalize %Activity of identified toxic compounds; DMSO-treated wells corresponded to 0%Activity (100% viability), while media-only controls were used to normalize 100%Activity (0% viability). To minimize variability between cell lines, both HT-1080-NT and HT-1080-IDH1KD lines were dispensed and treated with identical compound series in single batches.
# Concentration-response curves were fitted to the signals arising from the resulting luminescence. The concentration-effect curves were then classified based on curve quality (r2), response magnitude and degree of measured activity, and compounds were subsequently categorized based on their curve class.
# Potency is read from the fitted curve at half-maximal effect; tags tell the direction and shape of the fitted curve.
Structure (SMILES),"activity, negative = toxicity",Potency
CCCCN=C1NN=C(c2ccc3c(c2)OCCO3)CS1,inactive: -14.2%,–
O=C(Nc1ccccc1N1CCCCC1)c1ccc(-c2ccc(Cl)cc2)o1,–,active: 2.06 µM
COc1cc(NC(=O)CSCC(=O)Nc2cccc(C(F)(F)F)c2)c(Cl)cc1Cl,–,"inconclusive [cytotoxic, single point]"
CCc1nnc(N/N=C/c2c(F)cccc2Cl)n1N,–,"inconclusive [cytotoxic, single point]"
COc1cccc(C#Cc2ccc3c(c2)O[C@H](CN(C)S(=O)(=O)c2ccccc2F)[C@H](C)CN([C@H](C)CO)S3(=O)=O)c1,inactive: 0%,–
CN1CCN(c2ccc(S(=O)(=O)N3CCCCC3)cc2NC(=O)c2ccc3ccccc3c2)CC1,inconclusive: -31.7% [cytotoxic],–
CCCCCCCCOC(=O)C1=C(C)Nc2nnnn2C1c1cccs1 (configuration not stated),–,"inconclusive [cytotoxic, single point]"
NC1=C(Cl)C(=O)c2ccccc2C1=O,–,"inconclusive [cytotoxic, single point]"
CCOc1ccc2nc(C)cc(Nc3ccc4c(c3)OCCO4)c2c1,–,"inconclusive [cytotoxic, single point]"
Cc1ccc([C@H]2C[C@@H](O)[C@H](n3cc(-c4ccc(F)cc4)nn3)CN2C(=O)c2cccs2)cc1,–,"inconclusive [cytotoxic, single point]"
O=C1ON=C(c2ccccc2)/C1=C/c1ccc(-c2ccccc2[N+](=O)[O-])o1,–,"inconclusive [cytotoxic, single point]"
OC(c1ccc(F)cc1)c1nc(-c2cc3ccccc3o2)cs1 (configuration not stated),–,"inconclusive [cytotoxic, single point]"
CC(=O)c1cccc(S(=O)(=O)N2CCCC(c3nc4c(nnn4Cc4ccccc4Cl)c(=O)[nH]3)C2)c1 (configuration not stated),–,"inconclusive [cytotoxic, partial curve]"
CCCCCCCCN1C(=O)[C@H](CC(=O)NCc2ccc(OC)c(OC)c2)C[C@@]2(C(=O)OCC)CCCC=C12,–,"inconclusive [cytotoxic, single point]"
O=C(Nc1ccc2nc3ccccc3nc2c1)c1ccccc1,–,"inconclusive [cytotoxic, single point]"
COc1ccc(/C(C)=N\Nc2nc(-c3ccc(Cl)cc3)cc(C(F)(F)F)n2)cc1OC,inactive: 0.0937%,–
COc1ccc(OCc2nc3ccc(S(=O)(=O)Nc4ccccc4Cl)cc3[nH]2)cc1,–,"inconclusive [cytotoxic, partial curve]"
O=C1CN(C(=O)CSc2nc(-c3ccccc3)cs2)c2ccccc2N1,inactive: -2.22%,–
CCOC(=O)c1c(C)oc2c1c(C(c1ccncc1)N1CCOCC1)c(O)c1ccccc12 (configuration not stated),–,"inconclusive [cytotoxic, single point]"
COc1ccc(/C=C/C(=O)C2CC2)cc1COc1cccc(C)c1C,–,"inconclusive [cytotoxic, single point]"
Cc1c(C(=O)OCC2CCCO2)[nH]c2c1C(=O)CC(c1ccco1)C2 (configuration not stated),–,active: 2.91 µM
CCS(=O)(=O)c1ccc(OC)c(N=Nc2ccc(O)c3ncccc23)c1,–,active: 8.2 µM
COc1ccc(C(OC(=O)c2ccco2)C(=O)NC2CCCC2)cc1 (configuration not stated),inactive: 6.06%,–
CCc1nnc(NC(=O)CS(=O)(=O)Cc2ccccc2)s1,inactive: 9.15%,–

Structure (SMILES),"activity, negative = toxicity",Potency
c1cc(-c2cc3nc(NC4CCCCC4)ccn3n2)ccc1OCCN1CCOCC1,–,active: 20.6 µM
CCCOc1ccc(N2C(=O)CC(SC(=NC)Nc3ccc(F)cc3)C2=O)cc1 (configuration not stated),inactive: -23.4%,–
CCCCNC(=O)CSc1nc2cc3c(cc2c(=O)n1Cc1ccco1)OCO3,inactive: -8.48%,–
Cc1ccc(O)c(NC(=O)C2CC(c3cccc(Br)c3)=NO2)c1 (configuration not stated),inactive: -14.5%,–
Oc1ccc(Br)cc1CN1CCCCCCC1,–,"inconclusive [cytotoxic, single point]"
Cc1cc(C)cc(OCC(=O)Nc2cc(NC(=O)COc3cc(C)cc(C)c3)cc(C(=O)O)c2)c1,–,"inconclusive [cytotoxic, single point]"
CCN1C(=O)C(CC(=O)Nc2ccc(OC)cc2)N(CCCN2CCN(c3ccc(F)cc3)CC2)C1=S (configuration not stated),–,active: 18.4 µM
Cc1ccc2[nH]c(-c3ccccc3)cc(=O)c2c1,–,active: 1.03 µM
CC(C)CCCCCCCCCCCCC(=O)NCC(=O)NC1C(C)OC(Nc2ncnc3nc[nH]c23)C(O)C1O (configuration not stated),–,active: 0.116 µM
COC(=O)C1=C(C)NC2=C(C(=O)CCC2)C1c1cn(Cc2ccc(Br)cc2)nc1-c1ccccc1 (configuration not stated),–,"inconclusive [cytotoxic, single point]"
O=C(CSc1c(Cl)cccc1Cl)NC1CCCc2ccccc21 (configuration not stated),inactive: -1.94%,–
Cn1c(/C(C#N)=C/C2CC=CCC2)nc2ccccc21 (configuration not stated),–,"inconclusive [cytotoxic, single point]"
CCN(CC)c1ccc(/C=N/NC(=O)c2cnccn2)cc1,–,active: 3.66 µM
CCC(=O)Nc1nc2ccccc2n1Cc1ccccc1,–,"inconclusive [cytotoxic, single point]"
O=C(CSc1nc2ccccc2c(=O)n1NC(=O)Cc1ccccc1)NCc1ccccc1Cl,inactive: 4.41%,–
COc1cc(CNn2nnnc2N)cc(Br)c1OCc1c(Cl)cccc1Cl,–,"inconclusive [cytotoxic, single point]"
CN(C)c1ccc(C(=O)N/N=C/c2ccccn2)cc1,–,"inconclusive [cytotoxic, single point]"
CCOC(=O)N1CCN(C(=O)c2ccccc2-c2ccccc2)CC1,–,active: 7.31 µM
COc1ccc([C@H]2CC(=O)C=C(c3ccnc4ccc(Cl)cc34)C2)cc1,–,active: 3.66 µM
COc1ccc(CCN2CCCn3c2nc2c3c(=O)[nH]c(=O)n2C)cc1OC,–,active: 18.4 µM
Cc1ccc(CNc2ccc(O)cc2)cc1,–,"inconclusive [cytotoxic, single point]"
CC(=O)Nc1ccc(OCc2cn(CC(=O)c3ccc(O)cc3)nn2)cc1,inactive: -29.7%,–
COc1ccccc1OCC(=O)NNC(=O)Nc1ccc(Cl)cc1,–,active: 5.8 µM
